Values joined by “and” are separate entries in the source; they are usually repeats but may differ in a detail not shown here. Identical values can stand only once. In all, about 16,000 compounds went through this assay and about 40 (0.2%) were called active. Roughly 1% stayed inconclusive and do not appear here. Calls come from the whole dose curve; as a rule, active = well fitted activation curve with a large enough effect; inconclusive = small, poorly fitted or top-dose-only effect, or another doubt; inactive = no such curve, though single readings can be large or run the other way. The list shows a part of the results. Starred links: 1 amine or outer side, 2 acyl side, 3 side chain; linkers in the order of their positions; H or OH if unused. Positions of bridges follow the written chain, without caps; N, C: chain ends. Non-standard residues stand in square brackets, D forms with d. Residues, ends and D or L forms follow the SMILES beside them. Chains are numbered I, II in the order given. Actinocin(9to1) = Cc1c2oc3c(C)ccc(C(=O)[*:1])c3nc-2c(C(=O)[*:2])c(N)c1=O; NMeV = CN[C@H](C(=O)O)C(C)C; Sar = CNCC(=O)O
% is set by controls: 0 for no effect and ±100 for the full control effect.

UniProt Q8WZA2, sequence (Q8WZA2 whole entry, looked up): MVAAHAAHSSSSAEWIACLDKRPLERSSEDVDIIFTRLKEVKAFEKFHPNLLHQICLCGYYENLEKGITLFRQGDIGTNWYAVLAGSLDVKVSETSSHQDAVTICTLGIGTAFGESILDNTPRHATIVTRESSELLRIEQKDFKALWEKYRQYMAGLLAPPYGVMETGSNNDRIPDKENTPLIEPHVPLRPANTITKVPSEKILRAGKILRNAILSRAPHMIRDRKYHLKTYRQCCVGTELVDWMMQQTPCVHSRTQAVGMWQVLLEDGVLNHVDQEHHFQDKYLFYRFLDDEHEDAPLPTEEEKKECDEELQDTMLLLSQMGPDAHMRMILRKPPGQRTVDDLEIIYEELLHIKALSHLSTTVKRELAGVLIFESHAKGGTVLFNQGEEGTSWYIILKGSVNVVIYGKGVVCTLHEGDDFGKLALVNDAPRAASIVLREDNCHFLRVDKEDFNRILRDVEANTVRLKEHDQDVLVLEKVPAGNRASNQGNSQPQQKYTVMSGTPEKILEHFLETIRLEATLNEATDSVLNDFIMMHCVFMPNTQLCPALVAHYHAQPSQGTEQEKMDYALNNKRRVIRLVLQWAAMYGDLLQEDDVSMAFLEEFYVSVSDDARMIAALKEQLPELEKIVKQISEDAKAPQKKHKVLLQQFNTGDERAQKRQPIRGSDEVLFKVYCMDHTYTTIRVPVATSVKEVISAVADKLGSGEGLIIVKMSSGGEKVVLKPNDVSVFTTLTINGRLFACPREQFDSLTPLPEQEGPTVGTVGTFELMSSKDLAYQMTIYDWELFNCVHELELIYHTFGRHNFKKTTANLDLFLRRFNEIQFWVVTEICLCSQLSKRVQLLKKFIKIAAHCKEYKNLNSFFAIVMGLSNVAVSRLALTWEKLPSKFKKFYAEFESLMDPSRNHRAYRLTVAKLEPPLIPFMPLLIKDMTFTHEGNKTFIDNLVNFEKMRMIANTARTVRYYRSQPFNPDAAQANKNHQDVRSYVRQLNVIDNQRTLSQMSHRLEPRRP

This assay addresses Rap guanine nucleotide exchange factor 4 (Homo sapiens) (UniProt Q8WZA2). The assay can be described thus: Validation qHTS for agonist of cAMP-regulated guanine nucleotide exchange factor 4 (EPAC2).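 Note: exchange makes BODIPY-GDP fluorescence drop when released from Rap1B; series mostly up to about 150 µM.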 The following applies: EPAC2 Rap1B BODIPY-GDP exchange, fluorescence; activation: active compounds read high. The method in brief:
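Signal normalized against 6.5 mM cAMP as agonist control. Mix of EPAC2 (100 nM), RAP1B-BODIPY-GDP (250 nM) and GDP (50 uM) was read kinetically at 480/540 nm, every 5 min over 30 min, after 5 min room-temperature incubation with compound.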
Consider `CCNC(=O)CCC(N)C(=O)O` (configuration not stated), for which the activation is inactive: 2.49%.

Regarding `Cn1c(=O)c(CCc2ccccc2)nc2cnc(OCc3ccccc3)nc21`, the activation is inactive: -8.65%. As for `COc1cc(=O)n2c(c1C(=O)N(C)Cc1nonc1C)CCN(Cc1ccc(C)cc1C)CC2`, the activation was inactive: -7.14%.

Consider `O=C(C[n+]1cc(Br)cc2ccccc21)c1ccc(Cl)cc1`, for which the activation was inactive: -36.7%. Under `CC[C@@H]1Cc2cc(O)ccc2C2=C1c1ccc(O)cc1C[C@H]2CC` stands inactive: -17.5%. `O=C(NCC1(N2CCCCC2)CCCC1)c1cnn(-c2nccc(-c3cccs3)n2)c1C1CC1`: the activation is inactive: -3.25%. Under `C[C@@H]1NC(=O)[C@@H](N)CNC(=O)[C@H](C2CCNC(N)=N2)NC(=O)/C(=C/NC(N)=O)NC(=O)[C@H](CNC(=O)C[C@@H](N)CCCN)NC1=O` (some centres not stated) stands inactive: 5.82% and inactive: -10%; under `CCn1cc(CN2CCOc3ccc(C(O)C4CCCCC4)cc3C2)c(C)n1` (configuration not stated), inactive: -16.7%; under `CCCCCCCCCCOCC(O)CN` (configuration not stated), inactive: -18.7%. With `Cc1cc(=O)c(C(=O)NCCc2ccccn2)c2n1-c1ccccc1SC(c1cccs1)C2` (configuration not stated), the activation is inactive: -23.1%. As to `C=CC[C@H](c1ccc(F)cc1)N(CC(C)C)S(=O)(=O)C=C`, the activation was inactive: -21.9%. In the case of `COc1ccc2cc3[n+](cc2c1OC)CCc1cc2c(cc1-3)OCO2`, the activation was inactive: -23.8% and inactive: 15.2%. In the case of `COCc1ccc(CN2CCOc3ccc(C4=Cc5ccccc5C4)cc3C2)o1`, the activation is inactive: 4.91%.

For `CC[N+](C)(C)c1ccc(/C=C/c2ccnc3ccccc23)cc1`, the activation was inactive: -39.5%. On to `COCCn1c(=O)c(-c2cccc(C#N)c2)nc2cnc(Oc3ccc(OC)cc3)nc21`, for which the activation is inactive: 8.51%.

In the case of `Nc1ncnc2c1ncn2[C@H]1CC[C@@H](CO)O1`, the activation is inactive: -5.98% and inactive: -12.5%.

Regarding `COc1ccc(CN2CCC(=O)N([C@H](CO)CC(C)C)CC2)cc1OC`, the activation was inactive: -5.37%. As for `CCOC(=O)C[C@H]1c2ccccc2S(=O)(=O)N1c1cccc(OC)c1`, the activation is inactive: -18.9%. For `CN(Cc1ccco1)c1cc(-c2ccoc2)ncn1` the value was inactive: -0.172%. With `CC(CCC(=O)O)C1CCC2C3C(=O)CC4CC(=O)CC[C@@]4(C)C3CC(=O)[C@]12C` (some centres not stated), the activation was inactive: 6.73%. On to `Cc1noc(C)c1-c1nc(N2CCNCC2)c2ccccc2n1`, for which the activation was inactive: -2.85%. Under `Cc1cnc(CNc2cc(-c3ccccc3CN(C)C)ncn2)cn1` stands inactive: -7.83%. As for `COCC(=O)Nc1cc(C(=O)N2CCOc3ccccc3C2)cc2nc(-c3cccnc3)n(C)c12`, the activation was inactive: -5.98%.

In the case of `Cn1cccc1C(=O)N1CCC2(CCCN(Cc3nccs3)C2)CC1`, the activation is inactive: -4.75%. Turning to `OCC(S)CS` (configuration not stated), the activation is inactive: 4.59%. For `Cc1noc(C)c1-c1cc(NCc2cccs2)ncn1` the value was inactive: -18%.

For the compound `[Li+]`, the activation is inactive: -21.9%. On to `CC(C)=CC1C(C(=O)O)C1(C)C` (configuration not stated), for which the activation is inactive: -0.801%. Consider `COC(=O)c1ccc(CN2CCOc3ccc(C(O)c4cccnc4)cc3C2)cc1` (configuration not stated), for which the activation is inactive: -22.1%.

With `O=c1c(CCc2ccccc2)nc2cncnc2n1Cc1ccc(F)cc1`, the activation was inactive: -7.88%. As for `CC(C)(C)C(=O)OCOC(=O)[C@@H]1N2C(=O)[C@@H](N=CN3CCCCCC3)[C@H]2SC1(C)C`, the activation is inactive: -3.03%.

For `CCCCCCCCCCCCN1C/C(=C\C(=O)OCC)c2cc(C(F)(F)F)ccc2S1(=O)=O`, the activation was inactive: -38.4%. For `Cc1cnc(CNc2cc(-c3ccccc3Cl)ncn2)cn1`, the activation was inactive: 1.5%. On to `CC(=O)NC[C@H]1CN(c2ccc(N3CCOCC3)c(F)c2)C(=O)O1`, for which the activation is inactive: 5.55%. Take `NC(=O)c1cc[n+](CC2=C(C(=O)[O-])N3C(=O)[C@@H](NC(=O)Cc4cccs4)[C@H]3SC2)cc1`: the activation is inactive: -2.53%. For the compound `COc1cc(=O)n2c(c1C(=O)NCc1ccco1)CCN(Cc1ccc3ccccc3c1)CC2`, the activation was inactive: 0.571%.

`CN1CCN(c2ncc3nc(-c4ccccc4)c(=O)n(Cc4ccc(F)cc4)c3n2)CC1`: the activation is inactive: -11.3%.

With `Cc1nccn1CC1CCc2c(c3ccccc3n2C)C1=O` (configuration not stated), the activation was inactive: -9.2% and inactive: -2.03%. In the case of `O=C1C(O)=C(O)C(=O)C(O)=C1O`, the activation is inactive: 21.6%. As for `O[C@H](CCCN1CCN(c2ncc(F)cn2)CC1)c1ccc(F)cc1`, the activation is inactive: -18.4%. Under `c1ccc(CCc2nnc3n2CCN(Cc2ccc4ccccc4n2)CC3)cc1` stands inactive: -12%.

For `CCCCN(CC)CCOc1cccc2ccccc12`, the activation was inactive: -7.81%. In the case of `CCN(CC)CCOc1ccc(-c2nc3cc(Cl)ccc3s2)cc1`, the activation is inactive: -1.82%. Turning to `CC(C)NC(=O)[C@@H]1C[C@@H](Sc2ccccn2)CN1C1CCN(C)CC1`, the activation is inactive: -0.85%. On to `CC1(C)[C@@H]2CC[C@@]1(C)[C@H](OC(=O)CSC#N)C2`, for which the activation was inactive: -3.68%. Turning to `O=C(c1cc(C(F)(F)F)cc(C(F)(F)F)c1)N1CCC[C@@]2(CCN(Cc3ccccc3)C2)C1`, the activation is inactive: -17.8%.

For `N#CCCn1c(=O)c(-c2cccc(C#N)c2)nc2cnc(N3CCOCC3)nc21`, the activation was inactive: -23.1%.

For `O=C([C@@H]1CC=C[C@@H]2CCN(C3CC3)C(=O)[C@@H]21)N1CCOCC1`, the activation is inactive: -16.9%. As to `CC1C(=O)OC2CC34C5CC(C(C)(C)C)C36C(OC(=O)C6O)OC4(C(=O)O5)C21O` (configuration not stated), the activation was inactive: -12%.

Take `COc1ccc2c(c1)c(CC(=O)OCC(=O)O)c(C)n2C(=O)c1ccc(Cl)cc1`: the activation is inactive: -15.9% and inactive: -17.2%. With `CC(C)Cc1ccc([C@@H](C)C(=O)NS(C)(=O)=O)cc1`, the activation is inactive: -6.95%.

With `C=CC[n+]1cccc2cccc(O)c21`, the activation was inactive: -29.3%.

As to `O=C(C[n+]1ccccc1Cl)c1ccc(Br)cc1`, the activation was inactive: -21.2%. `CC(=NCc1ccccc1)c1ccccc1O`: the activation was inactive: 10.2%. With `COC(=O)N1CCC2(CCN(C(=O)Nc3ccc(OC)cc3)CC2)CC1`, the activation is inactive: -17.9%. On to `CC(C)CCCC(C)C1CCC2C3CC=C4CC(O)CCC4(C)C3CCC12C` (configuration not stated), for which the activation was inactive: -6.61%. With `Cc1c2oc3c(C)ccc(C(=O)N[C@@H]4C(=O)N[C@H](C(C)C)C(=O)N5CCC[C@H]5C(=O)N(C)CC(=O)N(C)[C@@H](C(C)C)C(=O)O[C@@H]4C)c3nc-2c(C(=O)N[C@@H]2C(=O)N[C@H](C(C)C)C(=O)N3CCC[C@H]3C(=O)N(C)CC(=O)N(C)[C@@H](C(C)C)C(=O)O[C@@H]2C)c(N)c1=O` (I: T[dV]P[Sar][NMeV] / II: T[dV]P[Sar][NMeV]; ester I:1-I:C, II:1-II:C; linker I:N-II:N via Actinocin(9to1)), the activation is inactive: -15.1%.

(Values after PubChem BioAssay AID1645887 (National Center for Advancing Translational Sciences (NCATS), 2021).)
